Data on 37 molecules can be found in the supplement of paper PMC9446081.

About 220 (0.56%) of roughly 39,000 compounds showed activity. The list shows a part of the results.
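Also: static incubation at 37 °C against the wild-type strain, values averaged over two biological replicates.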

The test system of the assay is Escherichia coli K-12 BW25113. Put plainly: relative growth (OD600 normalised to plate interquartile mean) (fraction); higher = less growth inhibition, active = 0.2 or less. The conditions noted are these: 50 µM; LB; incubation time: overnight (16-24 h).
For `C[C@H](CO)N1C[C@H](C)[C@H](CN(C)S(=O)(=O)c2cn(C)cn2)Oc2ncc(/C=C/c3ccccc3)cc2C1=O`, the relative growth is inactive: 1.02.

Turning to `C[C@@H]1CN([C@@H](C)CO)C(=O)c2cc(NS(=O)(=O)c3ccccc3)ccc2O[C@@H]1CN(C)S(=O)(=O)c1ccc(F)cc1`, the relative growth was inactive: 0.998.

Consider `CCCN(C)C[C@H]1OCCCC[C@@H](C)Oc2ccc(NC(=O)Nc3ccc(OC)cc3)cc2C(=O)N([C@@H](C)CO)C[C@H]1C`, for which the relative growth is inactive: 0.93.

In the case of `COc1ccc(NC(=O)N(C)C[C@@H]2Oc3ccc(NC(=O)Cn4cnnn4)cc3C(=O)N([C@H](C)CO)C[C@H]2C)cc1`, the relative growth was inactive: 0.992.

Turning to `COc1ccccc1-c1ccc2c(c1)O[C@@H](CN(C)C(=O)c1ccncc1)[C@@H](C)CN([C@H](C)CO)S2(=O)=O`, the relative growth is inactive: 0.996.

On to `Cc1noc(C)c1S(=O)(=O)Nc1ccc2c(c1)C(=O)N([C@H](C)CO)C[C@H](C)[C@@H](CN(C)C(=O)Nc1cccc3ccccc13)OCCCC[C@@H](C)O2`, for which the relative growth was inactive: 0.986.

Turning to `C[C@@H]1CCCCO[C@@H](CN(C)Cc2ccc(C(F)(F)F)cc2)[C@H](C)CN([C@@H](C)CO)C(=O)c2cc(NC(=O)Nc3ccc(F)cc3)ccc2O1`, the relative growth was inactive: 1.01.

On to `COCCOC(=O)N1C(=O)[C@@]2(c3cc(C#CC4(O)CCCCCC4)ccc31)[C@H](c1ccc(OCCO)cc1)N1[C@H](c3ccccc3)[C@H](c3ccccc3)OC(=O)[C@H]1[C@@H]2C(=O)N1CCN(c2ncccn2)CC1`, for which the relative growth was inactive: 1.03.

In the case of `Cc1noc(C)c1NC(=O)Nc1ccc2c(c1)C(=O)N([C@@H](C)CO)C[C@H](C)[C@H](CN(C)C(=O)NC1CCCCC1)OCCCC[C@@H](C)O2`, the relative growth was inactive: 0.986.

Consider `COc1ccc(-c2cnc3c(c2)C(=O)N([C@H](C)CO)C[C@H](C)[C@H](CN(C)C(=O)Nc2cccc4ccccc24)O3)cc1`, for which the relative growth was inactive: 0.981.

As for `COc1ccc([Si](C)(C)[C@H]2[C@H](CCO)O[C@@]3(C(=O)N(Cc4ccccc4)c4ccc(N5C(=O)COc6ccccc65)cc43)[C@@H]2C)cc1`, the relative growth was inactive: 1.01.

Turning to `O=C(O)c1n[nH]c2c1CCC2`, the relative growth was inactive: 0.981.

With `COCC#Cc1ccc([C@H]2[C@H]3CN(C(=O)CN4CCOCC4)CC(=O)N3[C@H]2CO)cc1`, the relative growth was inactive: 1.01.

For `C[C@H]1CN([C@@H](C)CO)C(=O)c2cc(NC(=O)CCN3CCOCC3)ccc2O[C@@H]1CN(C)S(C)(=O)=O`, the relative growth was inactive: 1.03.

`O=C(Nc1ccccc1)c1cc2c(c(-c3cccc(-c4ccncc4)c3)n1)[C@@H](CCO)N(CC1CCOCC1)C2`: the relative growth is inactive: 1.03.

Turning to `C[C@@H]1CCCCO[C@@H](CN(C)Cc2ccc(C(F)(F)F)cc2)[C@H](C)CN([C@@H](C)CO)C(=O)c2cc(NC(=O)Cc3ccccc3)ccc2O1`, the relative growth was inactive: 0.993.

As to `C[C@H](CO)N1C[C@H](C)[C@@H](CN(C)S(=O)(=O)c2cn(C)cn2)Oc2c(NC(=O)CCCCCC(=O)Nc3ccccc3N)cccc2C1=O`, the relative growth is inactive: 0.982.

`C[C@H]1CCCCO[C@@H](CN(C)Cc2ccccc2)[C@@H](C)CN([C@@H](C)CO)C(=O)c2cc(NC(=O)Nc3ccc(C(F)(F)F)cc3)ccc2O1`: the relative growth is inactive: 0.995.

Take `C[C@@H]1CN([C@H](C)CO)C(=O)c2cc(-c3ccc(C(=O)N(C)C)cc3)cnc2O[C@@H]1CN(C)C(=O)c1ccncc1`: the relative growth was inactive: 1.01.

For `C[C@@H]1CN([C@@H](C)CO)C(=O)Cc2cc(NS(=O)(=O)c3cn(C)cn3)ccc2O[C@@H]1CN(C)C(=O)Nc1ccc2c(c1)OCO2`, the relative growth is inactive: 0.973.

Consider `CC(C)[Si]1(C(C)C)O[C@@H](c2ccccc2)c2cc(-c3ccc(-c4ccc(Cl)c(Cl)c4)o3)nc(CCc3ccccc3)c21`, for which the relative growth was inactive: 0.989.

In the case of `C[C@@H]1CN([C@@H](C)CO)C(=O)CCCn2nncc2CO[C@@H]1CN(C)S(=O)(=O)c1ccc(Oc2ccccc2)nc1`, the relative growth was inactive: 0.99.

For the molecule `CC(C)N1[C@@H]2OC(C3O[C@H]4[C@H](O3)N(C(C)C)S(=O)(=O)N4C(C)C)O[C@@H]2N(C(C)C)S1(=O)=O` (some centres not stated), the relative growth was inactive: 0.997.

Regarding `C[C@@H]1CN([C@@H](C)CO)C(=O)Cc2cc(NC(=O)Cc3cn(C)c4ccccc34)ccc2O[C@@H]1CN(C)S(C)(=O)=O`, the relative growth was inactive: 0.992.

Turning to `CO[C@H]1CN(C)C(=O)c2ccc(NS(=O)(=O)c3ccccc3)cc2OC[C@@H](C)N(C(=O)NC(C)C)C[C@@H]1C`, the relative growth is inactive: 0.986.

As to `O=C(NCC(F)(F)F)[C@@H]1c2ccccc2C(=O)N(Cc2cc(F)cc(C(F)(F)F)c2)[C@H]1c1ccc(CO)cc1`, the relative growth is inactive: 0.978.

Consider `c1ccc(C2C3=C(CCCC3)SC3=C2CCCC3)cc1`, for which the relative growth is inactive: 1.03.

For `CN1CCN(C(=O)C[C@@H]2CC[C@@H]3[C@H](COC[C@H](O)CN3S(=O)(=O)c3cccc(Cl)c3)O2)CC1`, the relative growth is inactive: 0.98.

Take `C[C@@H]1CCCCO[C@@H](CN(C)C(=O)Nc2ccccc2)[C@@H](C)CN([C@@H](C)CO)C(=O)c2cc(NC(=O)CCC(F)(F)F)ccc2O1`: the relative growth was inactive: 1.01.

In the case of `COc1ccc2cc3[n+](cc2c1OC)CCc1cc2c(cc1-3)OCO2.[Cl-]`, the relative growth was inactive: 1.06.

Consider `CNC(=S)NCc1ccco1`, for which the relative growth is inactive: 1.

`Cc1noc(C)c1S(=O)(=O)N(C)C[C@@H]1Oc2c(NS(=O)(=O)c3cn(C)cn3)cccc2C(=O)N([C@H](C)CO)C[C@@H]1C`: the relative growth is inactive: 0.976.

As for `O=C(C[C@@H]1C[C@H]2c3cc(NS(=O)(=O)c4ccc(F)cc4)ccc3O[C@H]2[C@@H](CO)O1)NCc1ccccc1`, the relative growth was inactive: 0.988.

Regarding `COc1cccc(NC(=O)N[C@H]2CC[C@H](CC(=O)N3CCN(C)CC3)O[C@H]2CO)c1`, the relative growth was inactive: 1.

Consider `Cc1cc(C(=O)Nc2cccc3c2O[C@@H](CN(C)Cc2ccccc2)[C@H](C)CN([C@@H](C)CO)C3=O)n(C)n1`, for which the relative growth is inactive: 1.

As for `C[C@@H]1CN([C@H](C)CO)C(=O)c2cc(NC(=O)Nc3ccc4c(c3)OCO4)ccc2O[C@H]1CN(C)S(=O)(=O)c1cn(C)cn1`, the relative growth was inactive: 0.978.

Turning to `C=CCNC(=O)[C@H]1[C@@H]2C(=O)O[C@@H](c3ccccc3)[C@@H](c3ccccc3)N2[C@@H](c2ccccc2OCCO)[C@]12C(=O)Nc1ccc(C#CC3(O)CCCCCC3)cc12`, the relative growth was inactive: 1.06.
